Read counts are not given, so values of variants with three or more changes are uncertain.
B1: CPEB3 Ribozyme (parent)
chain: UAACAGGGGGCCACAGCAGAAGCGUUCACGUCGCAGCCCCUGUCAGAUUCUGGUGAAUCUGCGAAUUCUGCUGUAUAUCUC

Variants of: B1
Assay: self-cleavage, relative activity (ratio to wild type); higher = more cleavage; in vitro, sequencing
Procedure, shortened: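 After error-prone PCR and barcoding, CPEB3 ribozyme mutant libraries were transcribed with T7 RNA polymerase at 37°C for 5 hours, then given 15 min with DNase I before an EDTA stop, and they cleaved during both steps. Reverse transcription with template switching preceded Illumina sequencing. Relative activity divides a variant's cleaved/total read fraction by the unmutated ribozyme's. At least 5 reads were required per variant, and three batches were averaged.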

Variant | self-cleavage
A28C C39U U60C | 0.11
A28C C40U A56G | 0.29
A28C C44U C50A A65C C71G U80C | 0.02
A28C G36C A45U G61C U78C | 0.14
A28C G36U U60A | 0.34
A28C G42A U51C A56G U80C | 0.09
A28C U31C A64U U66C U74C | 0.2
A28C U41C U54A | 0.37
A28C U41G A47G | 0.19
A28C U43C A65C | 0.31
A28C U43G U49C A56U | 0.14
A28C U49C U58A | 0.36
A28C U51A U60A A75G | 0.18
A28C U78C U80C | 0.37
A28G A35C A65G U67C U69C | 0.1
A28G A35G A45U A57G | 0.12
A28G A35G A64G | 0.95
A28G A35G C62U U66C U72C | 0.12
A28G A35G U41C A57U U67A | 0.21
A28G A35G U41G A45G A65G U72A | 0
A28G A35G U58C | 0.58
A28G A35U A47G U66C C71A U72A | 0.05
A28G A35U A57G | 0.1
A28G A35U U41C A47U C59G A64G U69A | 0.04

Variant | self-cleavage
A28G A35U U43A | 0.41
A28G A35U U43C A56U | 0.07
A28G A35U U67C | 0.33
A28G A45C U69C A75G | 0.09
A28G A45G A64C U76C | 0.12
A28G A45G G55U C71U | 0.26
A28G A45G G61A U72C U78C | 0.42
A28G A45G U48C A65G | 0.11
A28G A45G U51C A65U | 0.12
A28G A45G U54G U60C C71G | 0.14
A28G A45U A65G A77U U80C | 0.26
A28G A45U A65G U74C | 0.2
A28G A45U U78C | 0.17
A28G A47G A65G | 0.07
A28G A47G U49A U60A U72C | 0.06
A28G A47U A57G A64G U67C | 0.5
A28G A47U U48C U66C U72A U74C U76C | 0.04
A28G A56G A57U U72G | 0.1
A28G A56G A64G U72C | 0.48
A28G A56U C71A | 0.37
A28G A56U U60A U66C U78C | 0.23
A28G A57G U72C | 0.41
A28G A64G U78C | 0.36
A28G A65C U67C | 0.12

Variant | self-cleavage
A28G C29U G70A | 0.15
A28G C29U U41A C44G A45U U48C A77U | 0.13
A28G C29U U54C A64U | 0.12
A28G C29U U78C | 0.15
A28G C32A G63A A65G U76C | 0.11
A28G C32A U49C A56U U66C | 0.05
A28G C32U A57G A77U | 0.44
A28G C32U A64G U80C | 0.09
A28G C32U U41C | 0.43
A28G C32U U49C A65G | 0.14
A28G C34A U41C A56U U66C C79U | 0.14
A28G C34U U69A | 0.13
A28G C37U A45G A47G A56G G63A | 0.06
A28G C37U U60C A64G U67A U72A | 0.12
A28G C37U U67C | 0.04
A28G C37U U67C U72A | 0.08
A28G C37U U72C | 0.33
A28G C38U U60C U69C G70A | 0.2
A28G C39A U54C U80C | 0.48
A28G C39U A45U G46A A64G | 0.19
A28G C39U G55A G61A C62A U66C U72A | 0.05
A28G C40A U54A U67A U74A | 0.09
A28G C40G A65G U78C | 0.05
A28G C40U U72A A75U | 0.36

Variant | self-cleavage
A28G C44U A45G | 0.15
A28G C59A U67C | 0.12
A28G C59G U60C A64G U67C U78A | 0.07
A28G C62A U66C U80C | 0.13
A28G G30A U31C | 0.34
A28G G33A C68A G73A | 0.21
A28G G33A U51C U66C | 0.11
A28G G33A U72C | 0.16
A28G G33C U41C | 0.17
A28G G36C A45G U54A U60A | 0.05
A28G G36C A45G U67C | 0.05
A28G G36U C40U A45C U80C | 0.1
A28G G42A A47G | 0.44
A28G G42A U48A U72A | 0.07
A28G G46U A64U | 0.17
A28G G46U A77G U78G | 0.04
A28G G52C G73A | 1.26
A28G G55U U69C | 0.15
A28G G63U C79G | 0.86
A28G G63U U72A | 0.28
A28G U31A A45C | 0.12
A28G U31A A57G U60C G70C U78C | 0.07
A28G U31A U41C A56G U76C | 0.14
A28G U31C A35G C37U G52A A57G | 0.88

Variant | self-cleavage
A28G U31C A45G U80C | 0.16
A28G U31C A47G A75U U80C | 0.42
A28G U31C A56U U66C | 0.07
A28G U31C G42A A45G U51C U66A U72A | 0.05
A28G U31C U41C U54C | 0.32
A28G U31C U43C U58C | 0.19
A28G U31C U48G | 0.6
A28G U31C U49C U76A | 0.1
A28G U41A A45C U48C A56G | 0.19
A28G U41A A56G A57G | 0.24
A28G U41A A57G U78C | 0.29
A28G U41A A57U U69A | 0.18
A28G U41A G63A | 0.11
A28G U41A U43C U49C | 0.09
A28G U41A U48C U49C U54C U60A U72C | 0.02
A28G U41A U51A U60A A64U | 0.11
A28G U41A U69A U76C | 0.14
A28G U41C A56G U67C | 0.07
A28G U41C A64U | 0.14
A28G U41C A75U | 0.79
A28G U41C C68A | 0.16
A28G U41C U43A C44U | 0.15
A28G U41C U43A U67A U80A | 0.13
A28G U41C U43C A56G A75U | 0.05

Variant | self-cleavage
A28G U41C U51A A65C U78C | 0.16
A28G U41C U72C U74C A75G | 0.21
A28G U41C U76C | 0.63
A28G U43A G63A A75U | 0.85
A28G U43A U51C | 0.8
A28G U43A U74G U76A | 1.3
A28G U43C A47G | 0.34
A28G U43C A65U | 0.41
A28G U43C U51A G55C A56G | 0.22
A28G U43C U54C | 0.08
A28G U43C U72G | 0.15
A28G U48A U54C C81U | 0.09
A28G U48C A57G A65G U66A | 0.13
A28G U48C G52A A77G | 0.33
A28G U48C G52C U54C | 0.2
A28G U48C U51C G52A U54C U72A | 0.23
A28G U48C U58C | 0.13
A28G U49A G63A U80C | 0.73
A28G U49A U69C U72C | 0.21
A28G U51A A56U A65G U66C | 0.04
A28G U51A U66A | 0.17
A28G U51A U69C | 0.21
A28G U51C A65U | 0.13
A28G U54C A56U A64G | 0.13

Variant | self-cleavage
A28G U54G G55U | 0.21
A28G U58C U66C | 0.2
A28G U58C U69A | 0.17
A28G U66A A77U | 0.28
A28G U67C A75G | 0.32
A28G U67C U78C | 0.42
A28G U69A A75U | 0.2
A28G U72C G73A | 0.96
A28G U72C U76C A77G | 0.87
A28G U74C A75U | 1.21
A28G U78A U80C | 0.63
A28U A35G A45C U54A A64G U78A | 0.26
A28U A35U A77G | 0.36
A28U A35U U41C U58G | 0.1
A28U A35U U43C U69A | 0.09
A28U A35U U51C U60A U66C | 0.08
A28U A35U U69A | 0.2
A28U A45G U69A | 0.19
A28U A47G U48C U74A | 0.19
A28U A47G U58A G70A | 0.05
A28U A47G U72A | 0.37
A28U A47G U78C | 0.74
A28U A56G U72C U74C | 0.87

From the RNAGym collection of RNA variant scans (doi:10.1093/nar/gkz1192)
